The supplement of paper PMC10320760
The data scatter; read single values as rough.

B1: Ydj1; a variant is named by its letters at X, in order (parent)
chain: MVKETKFYDILGVPVTATDVEIKKAYRKCALKYHPDKNPSEEAAEKFKEASAAYEILSDPEKRDIYDQFGEDGLSGAGGAGGFPGGGFGFGDDIFSQFFGAGGAQRPRGPQRGKDIKHEISASLEELYKGRTAKLALNKQILCKECEGRGGKKGAVKKCTSCNGQGIKFVTRQMGPMIQRFQTECDVCHGTGDIIDPKDRCKSCNGKKVENERKILEVHVEPGMKDGQRIVFKGEADQAPDVIPGDVVFIVSERPHKSFKRDGDDLVYEAEIDLLTAIAGGEFALEHVSGDWLKVGIVPGEVIAPGMRKVIEGKGMPIPKYGGYGNLIIKFTIKFPENHFTSEENLKKLEEILPPRIVPAIPKKATVDECVLADFDPAKYNRTRASRGGANYDSDEEEQGGEGVQCXXX

Variants of: B1
Experiment: enrichment factor, frequency at 37 °C / frequency at 25 °C (thermotolerance selection) (ratio); higher = more growth at 37 °C, higher likelihood of farnesylation
Settings: with Saccharomyces cerevisiae ydj1Δ (yWS304); selective temperature 37 °C; reference temperature 25 °C
Protocol: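 Pooled library of all 8,000 Ydj1-CXXX C-terminal motif variants (native CASQ replaced by C + three variable residues, one codon per amino acid) expressed from a CEN plasmid in S. cerevisiae ydj1Δ (yWS304). The library was grown in SC-Ura liquid to A600 ~2 (~8 generations) at permissive 25 °C or selective 37 °C. Reads from 8 and 7 replicates were pooled and variants counted by NGS. Enrichment factor = frequency at 37 °C / frequency at 25 °C, with a +1 correction; it reports Ydj1-dependent thermotolerance, used as a read-out of farnesylation by yeast FTase.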

Variant	enrichment factor
FEC	1
FEH	0.164
FEG	0.67
FEE	0.202
FEA	0.393
FED	0.187
FEF	0.808
RDS	0.396
RDQ	1.14
RDW	0.0894
RDP	0.243
RDR	0.147
RDV	0.215
RDN	0.13
RDY	0.118
RDM	1.19
RDT	0.22
CDY	0.327
CDM	1.55
CDQ	1.77
CDR	0.112
CDW	0.171
CDP	0.174
CDS	0.223

Variant	enrichment factor
CDT	0.273
CDV	0.385
CDN	0.26
SEE	0.165
SED	0.195
SEA	0.361
SEG	0.148
SEC	0.939
SEF	0.436
SEH	0.11
PDP	0.0952
PDS	0.182
PDV	0.161
PDQ	0.902
PDY	0.184
PDW	0.186
PDR	0.122
PDN	0.151
PDM	0.71
PDT	0.192
CEF	1.71
CEG	0.229
CED	0.149
CEA	1.37

Variant	enrichment factor
CEH	1.02
CEC	0.642
CEE	0.136
NDY	0.254
NDW	0.228
NDV	0.17
NDN	0.146
NDM	0.46
NDP	0.131
NDQ	0.457
NDS	0.203
NDT	0.307
NDR	0.386
NEH	0.204
NEF	0.494
NEA	0.212
NEC	0.876
NED	0.151
NEG	0.12
NEE	0.0983
YDQ	0.269
YDP	0.113
YDN	0.0922
YDY	0.211

Variant	enrichment factor
YDV	0.226
YDR	0.156
YDW	0.197
YDS	0.298
YDM	0.281
YDT	0.158
KEC	1.33
KEG	0.197
KED	0.158
KEE	0.155
KEF	0.418
KEH	0.141
KEA	0.442
IDS	0.532
IDN	0.161
IDQ	1.28
IDM	1.4
IDW	0.151
IDY	0.191
IDP	0.155
IDV	0.183
IDT	0.213
IDR	0.144
GEH	0.173

Variant	enrichment factor
GEF	0.274
GEE	0.171
GEG	0.243
GEC	0.2
GED	0.14
GEA	0.101
WED	0.255
WEA	1.59
WEG	1.83
WEE	0.744
WEC	1.15
WEF	1.65
WDS	1.31
WDV	0.929
WDY	1.57
WDM	1.98
WDR	0.504
WDT	1.22
WDN	0.832
WDP	0.513
WDQ	1.39
WDW	0.779
KDP	0.114
KDV	0.0784

Variant	enrichment factor
KDS	0.135
KDN	0.148
KDM	0.745
KDW	0.164
KDY	0.139
KDT	0.162
KDR	0.229
KDQ	0.492
PEF	0.445
PED	0.167
PEH	0.246
PEG	0.219
PEA	0.399
PEC	0.816
PEE	0.108
YEE	0.223
YEA	0.39
YEF	0.611
YEC	0.832
YEG	0.285
YED	0.157
TDN	0.168
TDY	0.137
TDM	1.14

Variant	enrichment factor
TDP	0.168
TDS	0.226
TDV	0.211
TDQ	1.61
TDR	0.152
TDT	0.0973
TDW	0.214
HDW	0.157
HDR	0.0727
HDV	0.141
HDS	0.116
HDT	0.146
HDQ	1.12
HDM	1.06
HDN	0.0806
HDY	0.214
HDP	0.164
MEC	1.23
MED	0.14
MEG	0.225
MEA	0.517
MEH	0.224
MEF	0.373
MEE	0.145

Variant	enrichment factor
QED	0.174
QEA	0.377
QEC	0.939
QEG	0.199
QEE	0.126
QEF	0.716
QEH	0.101
RED	0.16
REF	0.695
REG	0.253
REA	0.815
REC	1.31
REE	0.17
REH	0.167
DEA	0.191
DEG	0.103
DEF	0.154
DEE	0.213
DEC	0.181
DED	0.135
QDP	0.162
QDR	0.151
QDQ	1.04
QDV	0.178

Variant	enrichment factor
QDY	0.146
QDM	0.907
QDS	0.262
QDT	0.15
QDW	0.173
QDN	0.159
AEA	1.73
AEF	1.49
AEE	0.165
AEC	1.19
AEH	0.347
AED	0.194
AEG	0.338
LDY	0.189
LDQ	1.23
LDS	0.38
LDT	0.153
LDP	0.146
LDR	0.111
LDM	1.09
LDN	0.186
LDV	0.216
LDW	0.196
ADR	0.103

Variant	enrichment factor
ADP	0.153
ADY	0.181
ADM	1.54
ADV	0.135
ADT	0.184
ADQ	1.6
ADS	0.29
ADW	0.232
ADN	0.193
GDV	0.142
GDR	0.16
GDQ	0.179
GDS	0.192
GDW	0.102
GDP	0.0979
GDT	0.197
GDN	0.182
GDY	0.139
MDQ	0.891
MDW	0.12
MDS	0.151
MDY	0.174
MDR	0.119
MDM	0.455

Variant	enrichment factor
MDV	0.143
MDT	0.198
MDP	0.182
MDN	0.192
EEC	0.411
EEG	0.143
EEF	0.526
EED	0.151
EEE	0.122
EEH	0.217
EEA	0.273
DDN	0.112
DDR	0.138
DDQ	0.132
DDM	0.18
DDT	0.141
DDW	0.1
DDY	0.179
DDP	0.173
DDV	0.0922
DDS	0.164
LEA	0.758
LEG	0.13
LEH	0.266

Variant	enrichment factor
LEE	0.169
LEC	0.954
LED	0.27
LEF	0.369
SDP	0.132
SDY	0.157
SDW	0.195
SDN	0.222
SDQ	1.02
SDM	0.648
SDT	0.183
SDV	0.193
SDS	0.186
SDR	0.159
EDV	0.18
EDY	0.139
EDQ	0.397
EDP	0.165
EDN	0.138
EDR	0.162
EDW	0.253
EDT	0.137
EDS	0.285
IED	0.0852

Variant	enrichment factor
IEH	0.237
IEF	0.295
IEC	0.962
IEG	0.123
IEE	0.149
IEA	0.804
FDW	0.263
FDQ	0.418
FDT	0.359
FDN	0.248
FDV	0.329
FDR	0.118
FDP	0.267
FDS	0.193
FDY	0.195
VDR	0.179
VDP	0.197
VDW	0.135
VDV	0.602
VDS	0.759
VDN	0.28
VDQ	1.83
VDT	0.515
VDM	1.83

Variant	enrichment factor
VDY	0.161
VED	0.144
VEE	0.257
VEA	1.44
VEG	0.287
VEF	1.17
VEH	1.64
VEC	1.59
HEG	0.341
HEC	1.26
HED	0.185
HEE	0.119
HEA	0.514
HEF	0.545
HEH	0.193
TEE	0.395
TEG	0.209
TEC	1.38
TEF	1.08
TEA	0.683
TED	0.134
TEH	0.386
